{
  "source": "PubChem BioAssay AID686979",
  "about": "(National Center for Advancing Translational Sciences (NCATS), 2013)",
  "note": "About 50,000 (12%) of roughly 420,000 compounds were called active. This list was built around the results that the source calls inconclusive (neither active nor inactive); the mix of calls is not that of the screen. Calls follow the shape of the dose curve; as a rule, active = well fitted inhibition curve with a large enough effect; inconclusive = small, poorly fitted or top-dose-only effect; inactive = flat fitted curve, though single readings scatter. Potencies of inconclusive entries are left out as doubtful fits. % is scaled to controls: 0 for no effect and ±100 for the full control effect; potency is read from the fitted curve at half-maximal effect; tags tell the direction and shape of the fitted curve.",
  "data": [
    {"assay": "qHTS for Inhibitors of human tyrosyl-DNA phosphodiesterase 1 (TDP1): qHTS in cells in presence of CPT; also: nearly all actives have a fitted effect of over 55% in size", "details": "chicken DT40 Tdp1-/-;hTDP1 cells + 20 nM CPT, ATP luminescence, 48 h; activity change, negative = growth inhibition: at 46.2 µM (top of the series) unless noted", "in_short": "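Chicken DT40 Tdp1-/- cells complemented with human TDP1, 400 cells/well, exposed to compounds plus 20 nM camptothecin for at least 48 h at 37 C; viability read as ATP content by CellTiter-Glo luminescence.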", "values": [
      {"smiles": "Cc1ccnc(NS(=O)(=O)c2ccc(NC(=O)c3ccc(Cl)cc3[N+](=O)[O-])cc2)n1", "activity change, negative = growth inhibition": "inactive: -13.2%"},
      {"smiles": "O=C(Oc1nsnc1N1CCOCC1)N1CCCCC1", "Potency": "inconclusive [inhibitor, partial curve]"},
      {"smiles": "Cc1nnc(NC(=O)CSc2ccc(-c3ccc(Cl)cc3)nn2)s1", "Potency": "inconclusive [inhibitor, single point]"},
      {"smiles": "CC1(C)CC(NC(=O)CCc2nnc(CCCCc3ccccc3)o2)CCO1", "note": "(stereo unspecified)", "activity change, negative = growth inhibition": "inactive: 0.378%"},
      {"smiles": "O=C(CCc1nc2ccccc2c(=O)[nH]1)Nc1nc(-c2cccs2)cs1", "Potency": "inconclusive [inhibitor, single point]"},
      {"smiles": "Cc1cccc(NC(=O)CCNC(=O)c2ccccc2)c1", "activity change, negative = growth inhibition": "inactive: 10.2%"},
      {"smiles": "Cc1ccc(C(=O)Nc2cccc(-c3cn4ccccc4n3)c2)cc1", "Potency": "inconclusive [inhibitor, single point]"},
      {"smiles": "CCc1ccccc1NC(=O)Nc1ccc2c(c1)OCO2", "activity change, negative = growth inhibition": "inactive: -11.1%"},
      {"smiles": "CN(C)CCSc1nnc2sc3ccccc3n12", "activity change, negative = growth inhibition": "inactive: -8.2%"},
      {"smiles": "O=C1C2C3C=CC(C4CC34)C2C(=O)N1/N=C/c1ccc(-c2ccc(Cl)cc2[N+](=O)[O-])o1", "note": "(stereo unspecified)", "Potency": "inconclusive [inhibitor, single point]"},
      {"smiles": "NS(=O)(=O)c1ccc(CCNC(=O)Nc2ccc(Cl)c(Cl)c2)cc1", "Potency": "inconclusive [inhibitor, partial curve, poor fit]"},
      {"smiles": "CCCCc1nc(SCC(=O)N2CCCCC2)c2c(=O)n(C)c(=O)n(C)c2n1", "Potency": "inconclusive [inhibitor, single point]"},
      {"smiles": "CCCS(=O)(=O)c1nc(S(=O)(=O)c2ccc(C)cc2)c(NCCCN(C)C)s1", "activity change, negative = growth inhibition": "inactive: -4.47%"},
      {"smiles": "O=C(C1CCC(Cn2c(=O)c3sccc3n(Cc3ccccc3F)c2=O)CC1)N1CCOCC1", "note": "(stereo unspecified)", "Potency": "active: 16.4 µM"},
      {"smiles": "O=C(NCC1CCCO1)c1cccc(NS(=O)(=O)c2ccccc2)c1", "note": "(stereo unspecified)", "activity change, negative = growth inhibition": "inactive: -19.6%"},
      {"smiles": "O=C(CSc1nnc2c(Cl)cc(C(F)(F)F)cn12)Nc1ccc2c(c1)OCO2", "activity change, negative = growth inhibition": "inactive: -16.5%"},
      {"smiles": "Cc1cc(NC(=O)c2ccc3nccnc3c2)ccc1Br", "Potency": "inconclusive [inhibitor, single point]"},
      {"smiles": "CCC(C)(C)NC(=O)C(c1cccc(OC)c1OC)N(C(=O)CCC(=O)Nc1cc(C)on1)c1ccc2c(c1)OCCO2", "note": "(stereo unspecified)", "Potency": "inconclusive [inhibitor, single point]"},
      {"smiles": "COCc1ccc(C(=O)N2CCCC(Nc3ccc(C(C)C)cc3)C2)o1", "note": "(stereo unspecified)", "Potency": "inconclusive [inhibitor, single point]"},
      {"smiles": "Clc1ccc(-c2ccc(-c3nn4c(-c5ccco5)nnc4s3)o2)cc1", "Potency": "inconclusive [inhibitor, partial curve]"},
      {"smiles": "COc1ccc(C)cc1Nc1n[n+](C)c(-c2c3ccccc3cc3ccccc23)s1", "activity change, negative = growth inhibition": "inactive: -19.7%"},
      {"smiles": "Cc1cc(C)cc(-c2nnc(SCc3ccc(C(=O)O)cc3)o2)c1", "Potency": "inconclusive [inhibitor, single point]"},
      {"smiles": "O=C(Nc1ccc(Oc2cccnc2)cc1)c1cccc([N+](=O)[O-])c1", "Potency": "inconclusive [inhibitor, single point]"},
      {"smiles": "O=[N+]([O-])c1ccccc1N=Nc1c(O)[nH]c2ccc(F)cc12", "activity change, negative = growth inhibition": "inactive: 13.1%"},
      {"smiles": "Cc1cc2c(n1-c1ccc(Br)cc1)CC(C)(C)CC2=O", "Potency": "inconclusive [inhibitor, single point]"},
      {"smiles": "C#CCNC(=O)C1CCN(c2cc(C)nc(-c3ccccc3)n2)CC1", "activity change, negative = growth inhibition": "inactive: 15.7%"},
      {"smiles": "CCOC(=O)c1c(NC(=O)c2ccc(S(=O)(=O)N(CC(C)C)CC(C)C)cc2)sc2c1CCN(CC)C2", "Potency": "active: 8.2 µM"},
      {"smiles": "COc1cc(OC)c(N(C)S(=O)(=O)c2cccc(C(=O)NC3=NCCS3)c2)cc1Cl", "Potency": "active: 23.1 µM"},
      {"smiles": "O=C(Nc1nc(-c2ccccc2)ns1)c1ccc(Cl)cc1", "Potency": "inconclusive [inhibitor, single point]"},
      {"smiles": "COc1ccccc1N(C)S(=O)(=O)c1ccc(C(=O)Nc2cc(OC)c(OC)c(OC)c2)cc1", "Potency": "active: 16.4 µM"},
      {"smiles": "Cc1cccc(N2CCN(CC3CCCCC3)CC2)c1C", "Potency": "inconclusive [inhibitor, single point]"},
      {"smiles": "CC(=O)NCCNC(=O)c1cc(-c2cccc3ccccc23)nc2ccccc12", "activity change, negative = growth inhibition": "inactive: -3.86%"},
      {"smiles": "O=C1CC(CC(=O)N2CC3CCCC2C3)(c2cccc(F)c2)C(=O)N1Cc1cccnc1", "note": "(stereo unspecified)", "Potency": "inconclusive [inhibitor, single point]"},
      {"smiles": "COC(=O)/C=C1\\SC(=Nc2ccccc2)NC1=O", "activity change, negative = growth inhibition": "inactive: -15.7%"},
      {"smiles": "Clc1ccccc1-c1nnc2sc(CCc3ccccc3)nn12", "Potency": "inconclusive [inhibitor, single point]"},
      {"smiles": "N#CC1(CCCN2CCCCC2)c2ccccc2CCc2ccccc21", "Potency": "inconclusive [inhibitor, single point]"},
      {"smiles": "CCOC(=O)C1CCN(C(=O)c2sc3ncn(CC(=O)N4CCCCC4)c(=O)c3c2C)CC1", "activity change, negative = growth inhibition": "inactive: -6.74%"},
      {"smiles": "CCOC(=O)Cn1nnnc1C(C(C)C)N(Cc1cccs1)Cc1cc2cc(C)ccc2[nH]c1=O", "note": "(stereo unspecified)", "Potency": "inconclusive [inhibitor, single point]"},
      {"smiles": "CC1(C(=O)N2CCC(CC3CC(c4cccc(Br)c4)=NO3)(C(=O)NCC3CCCCC3)CC2)CC1", "note": "(stereo unspecified)", "Potency": "active: 18.4 µM"},
      {"smiles": "CCC1(c2ccc(Cl)cc2)NC(=O)N(CC(=O)NC2(C#N)CCCCC2)C1=O", "note": "(stereo unspecified)", "Potency": "inconclusive [inhibitor, partial curve]"},
      {"smiles": "O=C(Cn1cnc2ccccc2c1=O)c1c[nH]c2ccccc12", "Potency": "inconclusive [inhibitor, single point]"},
      {"smiles": "Cc1ccnc(NS(=O)(=O)c2ccc(NC(=O)Cc3ccc(Cl)cc3)cc2)n1", "activity change, negative = growth inhibition": "inactive: 10.1%"},
      {"smiles": "OCCCNc1nc(-c2ccc(Br)cc2)nnc1-c1ccc(Cl)cc1", "Potency": "active: 23.1 µM"},
      {"smiles": "CC(=O)Nc1ccc(S(=O)(=O)N(C)CC(=O)OC(C)C(=O)NC2CCCC2)cc1", "note": "(stereo unspecified)", "activity change, negative = growth inhibition": "inactive: 10.1%"},
      {"smiles": "CCN(CC)c1ccc(NC(=O)C2CCN(S(=O)(=O)c3ccc4c(c3)oc(=O)n4C)CC2)c(C)c1", "Potency": "inconclusive [inhibitor, partial curve]"},
      {"smiles": "Cc1ccc(S(=O)(=O)N/N=C2/CC(c3ccccc3)Oc3ccccc32)cc1", "note": "(stereo unspecified)", "Potency": "inconclusive [inhibitor, partial curve, poor fit]"}
    ]}
  ]
}
